# From PubChem BioAssay AID652106 (National Center for Advancing Translational Sciences (NCATS), 2013)
# In all, about 370,000 compounds went through this assay and about 500 (0.14%) were called active. This list was built around the results that the source calls inconclusive (neither active nor inactive); the mix of calls is not that of the screen. Calls follow the shape of the dose curve; as a rule, active = well fitted activation curve with a large enough effect; inconclusive = small, poorly fitted or top-dose-only effect; inactive = no such curve, though single readings can be large or run the other way. Potencies of inconclusive entries are left out as doubtful fits.
# Assay: qHTS of alpha-syn Inhibitors; also: nearly all actives have a fitted effect of over 65% in size; as to growth rescue (activation): % of control where 0% means no effect
# Settings: Yeast expressing alpha-synuclein, BacTiter-Glo, 24 h; Potency: growth rescue unless noted; growth rescue (activation): at 46.1 µM (top of the series) unless noted
# Procedure, shortened: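 Galactose-induced alpha-syn yeast (OD600=0.02, raffinose-pregrown) + pinned cpd, 24 hr, 30 deg C; growth by BacTiter-Glo luminescence. Growth restoration scores as activation.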
# Potency is read from the fitted curve at half-maximal effect; tags tell the direction and shape of the fitted curve.
Structure (SMILES),Potency,growth rescue (activation)
Cc1ccccc1OCC(=O)N(Cc1nc(-c2ccccc2)no1)C(C)C,"inconclusive [activator, single point]",
CC(=O)c1cn(CC(=O)NCc2ccc3c(c2)OCO3)c2ccccc12,"inconclusive [activator, single point]",
OC(COc1ccccc1)Cn1c2ccccc2c2ccccc21 (stereo not given),,inactive: 21.8%
O=S(=O)(NCCc1csc(-c2cccnc2)n1)c1ccc2c(c1)OCCO2,,inactive: -20.5%
COC(=O)C1=C(C)N(Cc2ccccc2)C(=S)N[C@H]1c1cccc(F)c1,"inconclusive [activator, single point]",
COc1ccc(C2=NS(=O)(=O)N(C)C(C(=O)NCc3ccco3)=C2)cc1OC,"inconclusive [activator, single point]",
COc1ccc(N(C)C(=O)c2onc3c2CCCC3)cc1,"inconclusive [activator, single point]",
Cc1ccccc1-c1ccc(CN2C(C(C)C)C(=O)N(Cc3cn(CCC4OCCO4)nn3)CCS2(=O)=O)cc1 (stereo not given),"inconclusive [activator, single point]",
Cc1ccc(-c2nc(=Nc3ccccc3)sn2-c2ccccc2)cc1,,inactive: -14.2%
COc1ccc(N2CCN(c3nc4ccccn4c(=O)c3C=O)CC2)cc1,"inconclusive [activator, single point]",
Cc1ccc(-c2c(N)nc3ncccn23)cc1,"inconclusive [activator, single point]",
CC(=O)N(O)c1ccc(/C=C2\C=Cc3ccccc32)cc1,,inactive: -21.7%
Cc1cccc(C2CC(c3ccccc3)=NN2c2ccc(S(N)(=O)=O)cc2)c1 (stereo not given),"inconclusive [activator, single point]",
Cc1ccc(C(=O)NCC(=O)OCC(=O)c2cccc3ccccc23)cc1,"inconclusive [activator, single point]",
CCOc1ccccc1C1NC(c2ccc3c(c2)OCO3)=CC(c2ccccc2O)N1 (stereo not given),,inactive: 1.14%
O=C(O)c1ccc(CCCc2ccccc2)cc1,"inconclusive [activator, partial curve]",
Cc1[nH]c2ccccc2c1C(=O)CN(C)c1ccccc1,,inactive: -3.87%
COC(=O)CCc1nc2c(C#N)c(-c3ccc(Cl)cc3)ccn2n1,,inactive: 1.12%
O=C(O)c1ccc(-n2nc(C(F)(F)F)cc2-c2cccs2)cc1,"inconclusive [activator, single point]",
C#CCOCCOCCOCCNc1nc(N2CCN(C(=O)CCCCCCCCCCNC(=O)[C@H](CCCCN)n3cc(CCO)nn3)CC2)nc(N2CCN(C(=O)CCCCCCCCCCNC(=O)[C@H](CCCN=C(N)N)n3cc(C[C@@H](C)CC)nn3)CC2)n1,,inactive: -54.8%
COc1ccc(N2CCN(C(CNC(=O)c3ccco3)c3cccnc3)CC2)cc1 (stereo not given),,inactive: -11%
COc1cccc(S(=O)(=O)N(C)C[C@H]2Oc3cc(Br)ccc3S(=O)(=O)N([C@@H](C)CO)C[C@H]2C)c1,"inconclusive [activator, single point]",
O=C(CCC(=O)Nc1ccccc1)N/N=C/c1cccnc1,"inconclusive [activator, single point]",
Cc1ccnc(Nc2nc(-c3ccc(O)c(O)c3)cs2)c1,,inactive: -14.4%

Structure (SMILES),Potency,growth rescue (activation)
O=C(O)CCc1ccc(-c2ccccc2)n1-c1ccc(C(=O)O)cc1,"inconclusive [activator, single point]",
CC1(C(=O)NCc2cccc3ccccc23)CCN1C(=O)Cc1ccc(-c2ccccc2)cc1 (stereo not given),"inconclusive [activator, single point]",
CCOC(=O)c1c(CN2CCOCC2)n(-c2ccccc2)c2cc(Br)c(OC)cc12,,inactive: -2.02%
CCCCCCC(=O)OCC(=O)c1ccc2c(c1)NC(=O)CO2,,inactive: 8.41%
Cc1nc(N2CCN(c3ccccn3)CC2)c2c(C)c(C(=O)Nc3ccc(F)cc3F)sc2n1,"inconclusive [activator, single point]",
COC(=O)c1ccc2nc(-c3ccc(C)cc3)c(Cc3ccc(C)cc3)n2c1,"inconclusive [activator, single point]",
Cc1ccc(N=C(N)N=C(N)N)cc1,"inconclusive [activator, single point]",
Cc1ccc(OCC(=O)NCCNC(=O)c2cnccn2)cc1C,"inconclusive [activator, single point]",
COc1ccc(-c2oc3cccnc3c2/C=C/c2ccc(OC)c(OC)c2)cc1,,inactive: 15%
CC1CC(=O)NN=C1c1ccc(N)c([N+](=O)[O-])c1 (stereo not given),"inconclusive [activator, single point]",
COc1cc(Br)c(C(=O)c2nccc3cc(OC)c(OC)cc23)cc1OC,,inactive: 0.603%
COc1ccc(C2CN=NC23CCCc2ccccc2C3=O)cc1 (stereo not given),,inactive: 10.8%
CC(C)Oc1cccc(NC(=O)C2(C)CCCN2C(=O)C(C)C)c1 (stereo not given),"inconclusive [activator, single point]",
COc1cc(N)c(Cc2nccc3cc(OC)c(OC)cc23)cc1OC,"inconclusive [activator, single point]",
Cc1c(C#N)c(O)[nH]c(=O)c1N=Nc1ccc(Cl)c(C(=O)O)c1,"inconclusive [activator, single point]",
O=C(NC(=S)NNC(=O)c1ccco1)c1ccc(Br)cc1,"inconclusive [activator, single point]",
COC(=O)c1ccc(/C=N/NC(=O)C2CC(=O)N(c3ccc(F)cc3)C2)cc1 (stereo not given),"inconclusive [activator, single point]",
COC(=O)N1C(=O)[C@](c2ccc(OC)cc2)(C(C)C)N1C(=O)OC,,inactive: 19.1%
Cc1ccc(OCCCC(=O)Nc2nncs2)cc1,,inactive: 1.7%
CC(=O)c1cccc(NC(=O)C2Cc3c(-c4cccc(F)c4)ccnc3O2)c1 (stereo not given),"inconclusive [activator, single point]",
C(#CSCc1ccccc1)SCc1ccccc1,"inconclusive [activator, single point]",
O=C1N2CCCc3cccc(c32)C12Nc1ccccc1S2 (stereo not given),"inconclusive [activator, single point]",
O=C1c2ccccc2C(=O)N1CCc1csc(-c2ccc(F)cc2)n1,"inconclusive [activator, single point]",
N/C(=N\OC(=O)c1cccc(Cl)c1)c1cccnc1,,inactive: 3.59%

Structure (SMILES),Potency,growth rescue (activation)
Cc1ccc2ncnc(-c3ccccc3)c2c1,,inactive: 4.73%
COc1ccc(NC(=O)CCCC(=O)c2ccccc2)cc1OC,,inactive: -1.94%
CC(Oc1ccc(Br)cc1)C(=O)O/N=C(\N)c1ccncc1 (stereo not given),"inconclusive [activator, single point]",
CC1=C(C(=O)OCc2ccc3c(c2)OCO3)C(c2ccc(F)cc2)NC(=O)N1 (stereo not given),,inactive: 0.337%
CC1CC(C)CN(S(=O)(=O)c2ccc3c(c2)CC(=O)N3)C1 (stereo not given),"inconclusive [activator, single point]",
O=C(Cn1ncc2c([nH]c3ccccc32)c1=O)NCCCN1CCN(c2ccccc2)CC1,"inconclusive [activator, single point]",
O=C(O)c1ccc(N/N=C/c2cn(Cc3ccc(F)cc3)c3ccccc23)cc1,,inactive: -15%
C[C@]1(C(=O)NCCCNc2ncc(C(F)(F)F)cc2Cl)C=C[C@@H](Cc2ccccc2)N1C(=O)c1ccccc1,"inconclusive [activator, single point]",
COc1ccccc1-c1nc(C(=O)NCC2CCCO2)cc2c1[nH]c1ccccc12 (stereo not given),,inactive: -12%
Cc1cc(NCCO)c2cc(O)ccc2n1,,inactive: -8.39%
COCOCCn1cc(CN2CCS(=O)(=O)N(Cc3ccc(-c4ccncc4)cc3)C(CC(C)C)C2=O)nn1 (stereo not given),"inconclusive [activator, single point]",
Oc1cccc2ccc(/C=C/c3ccccc3Br)nc12,"inconclusive [activator, single point]",
COc1ccc(C(=O)CC2(O)C(=O)N(Cc3cccc(C(F)(F)F)c3)c3ccccc32)cc1 (stereo not given),"inconclusive [activator, single point]",
Cn1ncc2c(N3CCN(c4ccccc4F)CC3)ncnc21,,inactive: 5.69%
COc1ccc(CN(Cc2ccccc2)C(=O)C2CC2)cc1COc1ccc(NC(C)=O)cc1,"inconclusive [activator, single point]",
C[C@@H]1CCCCO[C@H](CN(C)C(=O)C2CCCCC2)[C@@H](C)CN([C@H](C)CO)C(=O)c2cc(N(C)C)ccc2O1,"inconclusive [activator, single point]",
C=C1C(=O)C=C2CN(C(=O)c3ccccc3)[C@@](Cc3ccc(F)cc3)(C(=O)OC)[C@@H]12,"inconclusive [activator, single point]",
C[C@H]1CN([C@@H](C)CO)C(=O)CCCn2cc(nn2)CO[C@@H]1CN(C)S(C)(=O)=O,"inconclusive [activator, single point]",
O=C(C1CCCCC1)N1CCN=C1SCc1cccnc1,,inactive: 1.69%
CC(Sc1nnc(-c2ccccc2)n1C)C(=O)NCc1ccco1 (stereo not given),,inactive: 4.06%
CCn1cc(C(=O)NCc2cccc(F)c2)c(=O)c2cc(F)c(N3CCN(C(=O)c4ccco4)CC3)cc21,"inconclusive [activator, single point]",
C/C(CC(=O)Nc1ccc(C)c(Cl)c1)=N\NC(=O)Cc1cccs1,"inconclusive [activator, full curve, poor fit]",
